Laboratory results published in the RNAGym collection of RNA variant scans (doi:10.7554/elife.90254).
The source gives no read counts; variants with many changes may rest on few reads.

B1: OR4K15 (parent)
chain: GUUAACGGUCAUAGGCCAUGGAAACUAGGAGCACCAUUUCGCUGCCAGUGAAGAAAUGAACAAAGAAAAUCUGGGCCAGGCAGGCAUCAAAAGAAAUAGUCUUGCGCUCAACCAGAAAGUCUGUAAUCAUUUUAAGGGUA

Variants of: B1
Test: self-cleavage, relative activity (ratio to wild type); higher = more cleavage; in vitro, sequencing; the parent is a self-cleaving ribozyme

| Variant | self-cleavage |
| --- | --- |
| U12C A51G A68G | 1.32 |
| U12A A23G U49C | 1.1 |
| A11G U102C U132C U133G | 1.45 |
| A11G U37C A92U | 0.73 |
| U12C A66U A69G C128U | 1.09 |
| U12C G14C A116G | 1.02 |
| A11G A59G A129G | 0.75 |
| A11G A47G A56G | 0.79 |
| U12C U57C A92U U120C | 0.88 |
| A11G A52G A55G G83A G115U | 0.13 |
| U12C A36G G79U C81U | 0.1 |
| A11G A96U U108C A116G | 0.01 |
| A11G A66G A117U | 1.33 |
| A11U A91G U102A | 0.42 |
| A11U C25A A55G A60U U72C U120C U122C A140G | 0.12 |
| A11U A94G A96G U124C | 0.61 |
| A11G U97C A111G U131C | 0.03 |
| U12C A67G A110G | 0.36 |
| A11G U26C U38C U130C | 0.46 |
| A11U A64G U100C | 1.6 |
| A11G A95G A114U | 0.11 |
| U12C A23U A68G U130A | 0.66 |
| U12G A24G G74U U100C U132C | 0 |
| A11G U49C U122A | 0.37 |

| Variant | self-cleavage |
| --- | --- |
| U12C A95G A114G U127C | 0.08 |
| A11G A33G G58U A90U U132G | 0 |
| U12A U102C A126G U131C | 1.62 |
| A11G A96U U120C | 0.97 |
| A11G U26G A95G A117G | 0.98 |
| U12C C25U A62U U70G | 1.15 |
| U12C A96G U124C | 0.6 |
| U12C A59U A68G A69U | 0.95 |
| A11G A98U A111G U132C | 0.04 |
| A11U A18U U19A A24G U43C | 0.83 |
| A11G A54G A56G A86U A140U | 0.98 |
| A11U U38C A59U A129G | 0.85 |
| A11U A66G A116G U124C | 0.32 |
| A11G U127C A129U | 0.9 |
| U12A U49C A51G A91G | 1.52 |
| A11G C34G U38C | 1.32 |
| A11U A95G U131C | 1.67 |
| A11G A47G A54U A64U G106A | 0 |
| U12C A91C A126G | 1.49 |
| A11G A36G U122C | 0.77 |
| U12C A22G A92G | 1.05 |
| U12C A55G A95G U122G | 2.68 |
| U12C A30G G31U U87A | 1.18 |
| A11G A64U A117G A125U | 1.22 |

| Variant | self-cleavage |
| --- | --- |
| A11G A116G U120C | 0.1 |
| U12C A86G G106A | 0.05 |
| U12C C32U A68G | 1.99 |
| A11G U72A A95G A114U | 1.2 |
| A11G A56G U87C C128A | 0.8 |
| A11G U39C A82U A135G | 0.04 |
| U12C A52G A67G A78G | 0.16 |
| A11G A56U A60G A111G | 0.02 |
| U12C U43A U57C A114G | 0.22 |
| U12C A22G A30U A91G | 0.75 |
| A11U A69G U72A | 0.47 |
| A11G U70C A90U | 1.1 |
| U12C A18G A90G U100C | 1.2 |
| U12C A78U A86U | 0.75 |
| A11G A59G U131C | 0.52 |
| A11G U43A A54U A91G U108C A116G | 0.07 |
| U12A A52G A118G | 0.56 |
| U12C A86U A89U | 1.55 |
| A11G A59G A86G | 0.59 |
| A11G C35U G79U A117G | 0.09 |
| U12C A18G A62G | 0.89 |
| U12G A114G U131C | 0.15 |
| U12C A22U A30G A82G A126G | 0.41 |
| A11U U37C U39C U133A | 1.8 |

| Variant | self-cleavage |
| --- | --- |
| U12C U38A A64G U132C | 1.2 |
| A11G A56G A62G A140G | 1.13 |
| A11G A27U A30G A47G A54U U122C | 0.82 |
| A11U A23G C34U A56U A59G A90G U103A U120C | 0.06 |
| U12C U43C C46U A95G U102A A134G | 0.92 |
| A11G U37C U102A U139C | 0.68 |
| A11G U37C A51U | 1.78 |
| A11G A27U U100C | 1.95 |
| A11U A66G A68U U120C U122C | 1.78 |
| A11G C40G A95G C109U | 0.51 |
| A11U U19A C42A A54G A111G | 0.03 |
| A11G U19C U43C A78G A135U | 0.22 |
| U12A U37A A116C A118G | 0.44 |
| U12C U102C A114G | 0.08 |
| A11G U70C A98G | 0.36 |
| A11G U12C G21U A23U U122C | 1.2 |
| A11G A67G A86U | 0.82 |
| A11U A62G A63U | 1.36 |
| U12A A27C A56G A86G U120C | 0.65 |
| U12A A23G A52G U103A | 0.44 |
| U12A A94G A110G A140G | 0.1 |
| A11G C17U A134G | 1.32 |
| A11G A82G A129U | 0.59 |
| A11G A68G A96G A118G U132C A135G | 0.76 |

| Variant | self-cleavage |
| --- | --- |
| U12C U38C A51G A56G A78G U130C | 0 |
| A11G A59U U70A C85U | 0.52 |
| A11G U43C U103C A117G U130C | 0.64 |
| A11G A66U U87C U132A | 0.34 |
| A11G C35U C46U A78G | 0.24 |
| A11G U108C A111U A126G U133C | 0 |
| A11U U19A A51U U87C | 1.36 |
| A11U A18G A24G A64G U100C | 1.5 |
| U12C U70C C81U C85U A114C | 0.03 |
| U12C U19C G20A A51U A52G A126G | 0.08 |
| U12C A91G U108C | 0.07 |
| A11G A68U A82G A95G | 0.84 |
| U12A A24U A96G | 1.61 |
| U12C A47G A55G | 1.08 |
| U12C A52G A56C | 1.7 |
| U12C A33G U38C | 0.91 |
| A11G A63G A90G | 0.94 |
| A11G A56G G123A | 1.43 |
| U12A U39A A54G C61G A111U | 0.18 |
| A11G U43C A92U | 1.6 |
| A11G G21A A66G A78U A89G U122A U132C | 0.22 |
| A11U A52G U87C | 1.31 |
| U12C A23C A60G A86G U131C | 0.41 |
| A11G A54G A56G U120C | 1.24 |

| Variant | self-cleavage |
| --- | --- |
| A11G U19C G84A | 1.13 |
| A11G U72A A114G A125G | 0.05 |
| U12C A22U A95G | 2.18 |
| A11G U37C U43A U49G U70C A96G U108A A135G | 0.01 |
| U12C A59G A69G U102C | 2.14 |
| U12C U19A U72A | 0.74 |
| U12C A13G U120C | 0.34 |
| U12A A90G A95G A110G A118U | 0.1 |
| A11U A22G A82U U87A U130C | 0.06 |
| A11G A60G A82G A110G | 0.03 |
| A11G A55G U130C | 0.33 |
| A11U C40A U43C U130C | 0.24 |
| A11U U39A A60G A96G U108C | 0.05 |
| A11G U100C A116G A117U | 1.13 |
| A11G U12A U26A A59G A92U | 1.11 |
| U12C C16U U37C | 0.98 |
| A11G A27U U102C | 1.13 |
| A11G U12C U19C | 0.81 |
| A11G C40U A47G U127C U132C | 0.33 |
| A11G G29C A60G A111U | 0.1 |
| A11U U100C U130C | 0.98 |
| A11G U43A A110G | 0.05 |
| A11G U19C A23G A94G A117G | 2.05 |
| U12C A18U A33U U38C | 0.89 |

| Variant | self-cleavage |
| --- | --- |
| A11U A55G A90G | 0.21 |
| U12C U19A A116C | 0.17 |
| U12C A24G A91G | 0.79 |
| A11G A67G U102A | 0.91 |
| A11G U37C G53U U102C A111U | 0.01 |
| U12A A60G A63U A117G | 1.48 |
| A11G A59G A129C A135U | 0.1 |
| U12A A60G U97A U122C A135G | 0.45 |
| A11G A96U A117G | 2.49 |
| A11G C42U U43C A47G G83A | 0.93 |
| U12C U72C A78U | 0.17 |
| A11G A33U A116G U122A U130A | 0.02 |
| A11G A64G G106A | 0.08 |
| A11G A69G A90G A91G C112U | 0.02 |
| A11G A64G U108A A111U U131C | 0.02 |
| U12G A24G A27U A51G A59G | 1.27 |
| A11G A47G A94G | 1.78 |
| U12A C46U G138A | 1.12 |
| A11G U103C U130A | 0.08 |
| U12C A68G A89G A111G | 0.03 |
| U12A A56G A69U | 0.73 |
| U12C U37C A60G A68G A92G U120C | 0.33 |
| U12C A116G U131C | 0.34 |
